# ± gives the standard deviation of the averaged measurements. This is one part of the list.
# Test system: PfAP2-I AP2 domain 3 (GST-tagged)
# Assay: gcPBM binding intensity (ln(normalized median fluorescence intensity)); higher = stronger DNA binding
# In short: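 An Agilent 4 × 180k array carrying primer-extended double-stranded 36-bp intergenic genomic probes and negative controls received GST-tagged P. falciparum DNA-binding domains expressed in E. coli, about 25 μg on average, for 1 h. The binding buffer contained 1× PBS, 1% milk, 0.2 mg/ml BSA, 0.5% salmon testes DNA and 0.03% Triton X-100. Binding intensity is the top Masliner-normalised natural-log median intensity across replicate spots of either probe orientation, read after Alexa488 anti-GST antibody staining and a 488 nm scan.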
row,Sequence,gcPBM binding intensity (ln)
1,TTATACCTATATTTAACACACATTTGATAAAGTGCC [CACACA_site6732],7.76 ± 0.61
2,TTGTAGGTAAATATGTGTACGCATTATTATTCTTAA [XGTACX_site216],7.99 ± 0.46
3,AAAAAATTTGTTTATTGTACAGAAAGAATTATTATA [XGTACX_site6549],7.64 ± 0.3
4,GAGAGAGAAATAAAAAGTACATACATATATATACAT [XGTACX_site2267],7.79 ± 0.26
5,TGGAGATTTTTAAAGACACACAGGTAAGAATAATAA [CACACA_site1582],7.92 ± 0.63
6,AAAAAAAACAGACACATACACACAAAAATGTTATAA [CACACA_site82],7.55 ± 0.47
7,ACCATTTTTATGTATAAACACACGTACCCGCACTAA [CACACA_site1604],8.53 ± 0.39
8,TACTAAGAAGTATTTACACACCAACAAGGCGAAAAA [CACACA_site2944],7.91 ± 0.85
9,ATATGTATAAAAATCCGTACATAAGTGTGCGTATAT [XGTACX_site4376],8.72 ± 0.26
10,ATAAATAATATGTAAACACACAAAAAATAAAAATGA [CACACA_site1178],7.83 ± 0.61
11,ATGTTTGAGCCTAAGGTGCATATAAAAATATATGTG [GTGCAC_site9690],11 ± 0.66
12,ATATATATTATATATGCATGCCAAATCTTTATAAAC [TGCATGCA_site1042],7.92 ± 0.69
13,ACATATATATATATATATATATATATATATAGATAG [CACACA_negctrl_site783],8.66 ± 0.31
14,ATAAAGAAATTACACACATGCAATGAAAAAAAAAAA [TGCATGCA_site406],8.23 ± 1
15,ACAAAAAAATATTTATGTACTTATTATATTTATAAT [XGTACX_site2059],7.71 ± 0.37
16,CTTTTTACTTAATACACACACACACTAAAAAAAAAA [CACACA_site6574],8.39 ± 0.2
17,AAAACTAAATGTTATTCGCACACGGAATTTATTTAA [CACACA_site9221],8.01 ± 0.47
18,ATAAAATGATGTATCTGTGTATGTTTATTTTGTTTT [XGTACX_negctrl_site367],7.46 ± 0.45
19,ATTATATACAAATAAAGTACATAAACAAATTCAGAA [XGTACX_site1187],7.77 ± 0.47
20,TATTTCAAACTGTTCTCACACACGAAATTAGAAATG [CACACA_site611],7.57 ± 0.66
21,ATTCCAGAAATATATTAACAAGGAAAATATAAAAAT [CACACA_negctrl_site343],7.64 ± 0.77
22,TTTTGAATATGGATCTTATATATATTAAATAAATAA [CACACA_negctrl_site344],7.24 ± 0.47

row,Sequence,gcPBM binding intensity (ln)
1,TTGAGCCTACAAAAGGGTACACATTCAATTTATTTT [XGTACX_site6570],7.62 ± 0.52
2,AAAAAAAAAAGAAATTGTACTTTTTGTTTAATAATT [XGTACX_site4681],7.42 ± 0.66
3,ATATTTTGTTATGAAACACACACATATATATATATA [CACACA_site9216],9.32 ± 0.59
4,AAACTGAAAAAAATATGTACATATTTATATCTTATA [XGTACX_site3011],7.66 ± 0.31
5,TAAAGCAACTGAAACACACAAATTTTTTTTTTTTTT [CACACA_site7499],7.79 ± 0.76
6,ATTGTATAAAAATGTACATGCAATAAATTTAGTTCT [TGCATGCA_site675],8.03 ± 0.58
7,GAAACGTTTTTTCAGTGTACATTTTACCGATTTGTA [XGTACX_site8249],7.88 ± 0.6
8,TAGTATAATATATATTGTACGTTTTAATTGTTTATA [XGTACX_site2731],7.61 ± 0.11
9,AAAAAAAAAAAACACACACACAAATACAAATACATA [CACACA_site415],7.82 ± 0.38
10,ATATAATGAAGTGAATGTACATATAAAATGTAAAAA [XGTACX_site8052],7.85 ± 0.76
11,ATATAACATTGTTTTGCATGTAAATATTCAATTTTT [TGCATGCA_site758],7.57 ± 0.61
12,TCAAATTTAATCATAACACACATTCACATATGAATT [CACACA_site3199],7.44 ± 0.61
13,TTTTTATAAATAATAAGGCGTATGAAAATAAAATAA [TGCATGCA_negctrl_site421],7.82 ± 0.65
14,TCAAAATATCCAAAAGAATAAAGAAAAAAAAAAAGA [CACACA_negctrl_site1377],7.5 ± 0.41
15,TATATATATATTTAATGTACATGTTTATTTTATCAT [XGTACX_site499],8.975 ± 0.007
16,AATAAAATAAAAAAAAATAAAAAAAAAATAAAAAAT [XGTACX_negctrl_site245],7.54 ± 0.45
17,TTTATAAAGGGAAAGGTGCAAAAGGTGAAAGTTTTA,10.9 ± 0.44
18,TATTTTTCTTTTTAAGTGCATGGTTGTATAAAATTT [GTGCAC_site9480],8.63 ± 0.69
19,TCTTTTTTGAAGCATTTTGTTTTTTAATAAGTAAAA [TGCATGCA_negctrl_site247],7.58 ± 0.59
20,TATATCAAAAACGAGACATGCATGCCGTTCATTTTG [TGCATGCA_site211],7.29 ± 0.7
21,GAGTTTATATTTTAAGCATGCATATGTTATTATTAT [TGCATGCA_site1049],7.75 ± 0.69
22,TTATTAACGGAACTCTGTACTTAAAAAATTTTAGAA [XGTACX_site8787],7.66 ± 0.34

row,Sequence,gcPBM binding intensity (ln)
1,TATATAAGAATATATACACACATATCTGTATTTATA [CACACA_site5231],7.59 ± 0.24
2,AAAAAAACAGAAAACACACAAATTATCTTATAATTA [CACACA_site6282],7.29 ± 0.58
3,ATTGTTTCATTAAAATGTACATAAATTGTGTATAAT [XGTACX_site5341],8.12 ± 0.3
4,ATACTGTATAGTCGCACACAAAAATATAAAATATTT [CACACA_site6004],7.92 ± 0.3
5,AAAATTTGAAAAAGGGGTACTTAATAAAAGTTTCAT [XGTACX_site932],7.79 ± 0.53
6,TTACACAAGGATAAAAACATATGTATGATTATATAT [CACACA_negctrl_site654],7.71 ± 0.71
7,AATAGAAATTATATAAACATAAATGAATAAATAAAT [CACACA_negctrl_site1817],7.44 ± 0.59
8,AGTATTATTTACTGCGCATGCTATTTATATATATTA [TGCATGCA_site876],8.4 ± 0.83
9,AATTAAATGGATAAATGTACATATGTGAATATATTT [XGTACX_site84],7.96 ± 0.56
10,CTACATATGTATAATATGCACACGTCATTTTCCCCT [CACACA_site2107],8.82 ± 0.61
11,AATTATCAGGAATGATGTACTGAAATAAAAAAAAAA [XGTACX_site3280],7.96 ± 0.66
12,ATTTTATTTAAATACACACACATATATATATTATAT [CACACA_site4607],8.03 ± 0.49
13,CACAGACACCCATACACACACATACCCATATATATA [CACACA_site5023],8.39 ± 0.67
14,AAAAAAAAAAAAAAAGCACACATCATATTTTAATTC [CACACA_site9109],9 ± 0.41
15,ACACAAAAATGAAAAATGAAAAGGGTAATATATATA [CACACA_negctrl_site1490],8.48 ± 0.57
16,ACATAGATCATAGGTTGTACGAAGGTATCCTTTATT [XGTACX_site694],7.57 ± 0.61
17,TCATATATATATATATGTACATATTTATGTATGTAT [XGTACX_site6291],7.62 ± 0.33
18,ACTTTTTGAATGTTTGCACACAAATCTCATAATTTT [CACACA_site358],8.91 ± 0.36
19,TTTTTCTTTGAATAAATACACACGAGAAATGAAAGT [CACACA_site1688],8.47 ± 0.59
20,AAAAGGAGCAAATACAAAAAAATGAACAAAAAAAAA [CACACA_negctrl_site716],8.24 ± 0.47
21,TTTTGTAATGCTTTTTTTTTTTTTTTTTTTTTTTTT [CACACA_negctrl_site932],9.885 ± 0.035
22,CATACCTATAGACACACACACACACGCACGCACAAA [CACACA_site6374],8.54 ± 0.65

row,Sequence,gcPBM binding intensity (ln)
1,TAATAAATCAAATGCACACACACAAAAAAAAAAAAA [CACACA_site161],9.24 ± 0.38
2,TTTTTATTTTTTTATGCATGTGATGAAACGTGCCTA [TGCATGCA_site141],8.15 ± 0.74
3,ATAATTAACAAATACACACACACACCCAGACAAAAA [CACACA_site4445],8.37 ± 0.16
4,AACAATTAGAATAACGCATGCATTTATAATATAGAA [TGCATGCA_site595],8.15 ± 0.87
5,TGTGTATATATAAATACACACCAAATGTTAATATAT [CACACA_site8501],7.83 ± 0.43
6,AAACAAATAAAAATATGTACACATTTTTTCATTATG [XGTACX_site5449],7.81 ± 0.38
7,AAAATATTAAATATGTGTACATATAATAGTTCAATG [XGTACX_site5957],7.71 ± 0.42
8,TTAAAAGAAAATAGGTGTACACATAATATATACATA [XGTACX_site7697],8.3 ± 0.2
9,TTTTTAATCATAATATGTACATATAAAAATGGTTTG [XGTACX_site3996],7.71 ± 0.54
10,AATATGTCTTAAAAAAGTACATAAATTTTAACTTCA [XGTACX_site6670],7.865 ± 0.035
11,ATTAATTAAAATAGTTGTACAATCAAAAAAACAAAA [XGTACX_site7660],8.15 ± 0.64
12,AACAAAGAGAAATAAACACACACAAAATAAAGAAAA [CACACA_site8704],7.83 ± 0.82
13,TTTTTGTATGCTTCCCGACTACATTATGTCGTAAAT [GTGCAC_negctrl_site164],8.12 ± 0.84
14,AGAATATATAAGTATACACACATATATATATATATA [CACACA_site201],9.36 ± 0.47
15,ATATCGAAAATTTGGTGTACATTTTTATTTGTTCAA [XGTACX_site3094],8.14 ± 0.48
16,TATAAAATAATTAAATGTACATAATATATAAAATAT [XGTACX_site6777],7.81 ± 0.52
17,TTATAAATATTCACTGTGCACTGATGGAATATAAAT [GTGCAC_site9739],10.6 ± 0.2
18,GATATTACGTGTTTGGTATTTTTTGATGTTAATAGG [CACACA_negctrl_site105],7.82 ± 0.73
19,TTTATTTTTCATTGGGGTACACAAGTTTATTTTTGA [XGTACX_site4262],8.27 ± 0.13
20,ATATCGTTTTTAAATTGTACATTCACTATAGAATAA [XGTACX_site6442],8 ± 0.61
21,TTCTTTGTTTTTTTTTTTTTTTTAAAAGATAATATT [XGTACX_negctrl_site381],7.88 ± 0.42
22,ATTTTTTCTTTTCGATGTACCCTTCTTATTCTTTAT [XGTACX_site3782],8.2 ± 0.91

# From the supplement of paper PMC11417369
